Data reported in ChEMBL document CHEMBL5308541, “MAIP: An Open-Source Tool to Enrich High-Throughput Screening Output and Identify Novel, Druglike Molecules with Antimalarial Activity” (ACS Med Chem Lett, 2023).
Screen size: about 150,000 compounds; about 540 (0.36%) showed an effect of 50% or more. This is one part of the list.

Test system: Plasmodium falciparum
Assay: Primary screen in NF54 nanoGlo assay, in single point, at 2uM, 72h; a lower Z score goes with more inhibition
Format: functional, Erythrocyte
Details: timepoint 72 hour

Row | Structure (SMILES) | % Inhibition | Z score
1 | CC(C)=CCNC(=O)c1conc1C1CN(C(=O)OC(C)(C)C)C1 | -9% | 1.31
2 | O=C(Nc1cccc(-c2cc[nH]n2)c1)N1CC2(CCOCC2)C1 | -10% | 1.8
3 | COCCN1CCC(CNc2nc(C)nc(C)c2C)CC1 | -12% | 2.11
4 | CN(C)S(=O)(=O)NC1CCN([C@H]2CCS(=O)(=O)C2)CC1 | 14% | -2.49
5 | Cc1noc(-c2ccnc(NCCNC(=O)CC3CCCCC3)c2)n1 | 1% | -0.09
6 | CN(C)c1nc(NC2CC(C)(C)NC(C)(C)C2)cc(C2CC(N)C2)n1 (stereo not given) | 14% | -3.11
7 | COc1cc(CCNC2CCN(C(C)C)CC2)ccc1F | 8% | -1.37
8 | Cc1cc(N2CCC(Nc3ncccn3)C(O)C2)c2cc3c(cc2n1)OCO3 (stereo not given) | -13% | 2.23
9 | N#Cc1ccc(-c2ccc(C(=O)NCCN3CCNCC3)cc2)cc1Cl | 8% | -1.53
10 | CN1CCC[C@H](Nc2nccc(N(C)C)n2)C1 | -9% | 1.51
11 | O=C(CCc1ccc(Cl)c(F)c1)N1CCNC[C@H]1C(F)F | 12% | -2.17
12 | c1cc(Cn2cncn2)cc(Nc2ncnc3[nH]ncc23)c1 | -3% | 0.39
13 | O=C1Nc2ccccc2NC12CCN(C1CCN(C3CCCC3)CC1)CC2 | -8% | 1.34
14 | CC[C@H](C)N(C)CCN=C(N)Nc1ccc(F)cc1 | 14% | -3.04
15 | OC1CCN(Cc2ccc(CNC3CCN4CCCC4C3)cc2)CC1 (stereo not given) | 15% | -3.34
16 | O=C(c1cc(COc2cncc(Cl)c2)on1)N1CC(N2CCCCC2)C1 | -3% | 0.48
17 | Cc1nnc(NC2CC3CC3C2)nc1C (stereo not given) | -2% | 0.41
18 | Cn1c(NCc2cc(F)cc3cccnc23)nc2ccc(C#N)cc21 | -25% | 4.37
19 | CN(C)[C@H]1CCN(c2ccnc3cnccc23)C1 | -1% | 0.15
20 | CN1CCN(C(=O)[C@H]2CCCN(C3CCN(c4noc(C5CC5)n4)CC3)C2)CC1 | 2% | -0.39
21 | CCc1cc(N[C@H]2CCN(Cc3cc(OC)cc(OC)c3)C2)nc(C)n1 | 9% | -1.79
22 | NS(=O)(=O)N1CCN(C(=O)NCc2noc(-c3ccccc3)n2)CC1 | -2% | 0.35

Row | Structure (SMILES) | % Inhibition | Z score
23 | O=C(N1CCC(CNc2ncnc3[nH]ncc23)CC1)C(F)(F)F | -6% | 1.03
24 | O=C(Cc1cccc(C(F)(F)F)n1)N1CCn2ncnc2C1 | -9% | 1.89
25 | CN1CCN(Cc2cccc(C(=O)NC3CCN([C@H]4CCOC4)CC3)c2)CC1 | -4% | 0.6
26 | Cc1cccc(N2CCC(NS(=O)(=O)c3cnc4onc(-c5ccccc5)c4c3)CC2)n1 | -2% | 0.34
27 | COCCCn1ccc(Nc2ncnc3cccc(F)c23)n1 | -7% | 1.33
28 | CN(Cc1ccc2ncccc2c1)C(=O)[C@@H](N)CCCNC(N)=O | 3% | -0.72
29 | O=C(NC1CCN(Cc2ccncc2)CC1)c1ccnc(OCC(F)F)c1 | 3% | -0.55
30 | CN(CCN1CCOC2CCCCC21)CCN1CCOC2CCCCC21 (stereo not given) | -16% | 3.55
31 | CC(C)OCC(=O)Nc1cc(Cl)ccc1C(=O)[C@H]1CCOC1 | -2% | 0.42
32 | Cc1ccc2nc(-c3ccccc3)c(CN(C)C3CCN(C)CC3)c(O)c2c1 | -1% | 0.1
33 | O=C1c2ccccc2-c2c[nH]c3c(Oc4ccccc4)c(N4CCOCC4)c(O)c1c23 | 4% | -0.67
34 | COc1ccc(-c2ccc(C(=O)N3CCN(CCN(C)C)CC3)cc2)cn1 | 4% | -0.75
35 | Cc1ccc(OC2CCN(Cc3ccc(-n4ccnc4)nc3)CC2)nc1 | -4% | 0.64
36 | O=C(C1CN2CCCN1CC2)N1CCC(c2nccc(-c3cncnc3)n2)CC1 (stereo not given) | 3% | -0.48
37 | COc1cccc(F)c1CN(CCO)Cc1nc[nH]c1C | 3% | -0.46
38 | O=C(NC1CCN(Cc2ccccc2)CC1)C1CN(c2cc(-c3ccccc3)ncn2)C1 | -2% | 0.41
39 | COc1ccc2[nH]cc(C3CCN(c4ncnc5[nH]ncc45)CC3)c2c1 | -5% | 0.89
40 | OC[C@H]1CCCN1Cc1ccccc1CNc1ncnc2[nH]ccc12 | -1% | 0.18
41 | Cc1c(N(C)Cc2cccc(O)c2)nn2c(C(F)(F)F)nnc2c1C | -7% | 1.4
42 | Cc1cccc(NC[C@H]2CCN(c3cncc(OC(C)C)n3)C2)n1 | 4% | -0.81
43 | CCN1CCN(c2ccccc2CNCCC2CCN(C)CC2)CC1 | 27% | -4.06
44 | Fc1cc(-c2ccncc2)ccc1CNCc1cnc(N2CCOCC2)c(F)c1 | -1% | 0.21

Row | Structure (SMILES) | % Inhibition | Z score
45 | CCc1c(C(=O)CN2CCOC[C@H]2C(N)=O)[nH]c(C)c1C(C)=O | -2% | 0.32
46 | Fc1ccc(N2CC[C@H](CNc3ccc4nnc(-c5ccccc5)n4n3)C2)cc1 | -10% | 1.72
47 | NC(=O)C1CCN(CCCCNCc2cnc3ccnn3c2)CC1 | 1% | -0.23
48 | C[C@@H]1CNCCN1Cc1cccc(OCCN2CCCCC2)c1 | -4% | 0.73
49 | COc1ccc(C(=O)NCCc2scnc2C)cc1N1CCOCC1 | -5% | 0.89
50 | O[C@H](COC1CCCCC1)Cn1cnc(-c2ccccc2)c1-c1cccnc1 | -9% | 1.94
51 | O=C(c1nnc(N2CCN(c3ccccc3F)CC2)c2ccccc12)N1CCN(CCN2CCOCC2)CC1 | 15% | -2.65
52 | CC(C)C1OCCCC1Nc1ccnc(N2CCC(CN3CCOCC3)C2)n1 (stereo not given) | 3% | -0.46
53 | CC(C)n1cc(NC2CCN(c3cccc(-c4ccn[nH]4)c3)CC2)nn1 | -7% | 1.23
54 | COc1cncc(N2CCN(CCCN3CCCCC3)CC2)c1 | -13% | 2.19
55 | Cc1cc(-c2nc3ccc(S(C)(=O)=O)cc3[nH]2)cc(C)c1O | -1% | 0.3
56 | O=C(N[C@H]1CCNC1)c1cccc(OC2CCN(Cc3ccncc3)CC2)c1 | -7% | 1.28
57 | NC[C@H]1CCCCN1C(=O)c1ccccc1-n1cnnc1 | -5% | 1.14
58 | Cc1nc2ccc(Oc3ccccc3)cc2c(O)c1CN(C)C1CCN(C)CC1 | 34% | -6.83
59 | COc1ccc([C@@H](NC(=O)Nc2ncc(C3CCOCC3)s2)C2CC2)cn1 | -2% | 0.38
60 | OCCN1CCN(C2CCN(c3cc(C4CC(O)C4)ncn3)CC2)CC1 (stereo not given) | 5% | -0.91
61 | CCN(C)C(=O)CN1CCC[C@H](S(C)(=O)=O)C1 | -2% | 0.31
62 | Cn1ccnc1C(O)C1CCCN(c2ncnc3[nH]ccc23)C1 (stereo not given) | -5% | 1.03
63 | CN(C(=O)[C@H]1CCCN(CC(F)(F)F)C1)c1cccc2ncccc12 | -5% | 0.79
64 | C[C@@H](C1CCN(Cc2cnc(-c3ccco3)nc2)CC1)N1CCN(C)CC1 | -1% | 0.21
65 | CCCCn1ccnc1[C@H]1CCCN(C(=O)c2cc(C(F)(F)F)nn2C)C1 | -5% | 0.95
66 | CC(C)c1ccc(-c2csc3ncnc(Nc4ccc(Cl)c(C(F)(F)F)c4)c23)cc1 | -15% | 2.57

Row | Structure (SMILES) | % Inhibition | Z score
67 | CN(C)CCN1CCC(CNCc2ccc3ncccc3c2)CC1 | 40% | -8.63
68 | Cc1noc(-c2ccnc(NCCc3coc(-c4ccccc4)n3)c2)n1 | 0% | -0.05
69 | Cc1noc(-c2ccc(N3CC4CCC(C3)N(CC3CC3)C4)nc2)n1 (stereo not given) | -13% | 2.24
70 | CC1CN(c2cccc3cnccc23)CCN1C(=O)[C@H]1CCCCN1 (stereo not given in full) | 10% | -1.71
71 | Cc1ccc(-c2cc(C(=O)NCc3ccnc(O[C@H]4CCOC4)c3)[nH]n2)c(C)c1 | -2% | 0.34
72 | Cc1c(NC(=O)c2cc(-c3ccncc3)[nH]n2)cccc1-c1nncn1C | -3% | 0.47
73 | CCN(C(=O)CN(C)Cc1ccccc1F)C1COCC1O (stereo not given) | 14% | -3.06
74 | CC(C)CC1OCCCC1NCCC(=O)N1CCN(C)CC1 (stereo not given) | 3% | -0.69
75 | Cn1ccc2c(-c3cccc4c(N)ccnc34)ccnc21 | 6% | -1.24
76 | Cc1ncnc(N2CCN(C(=O)c3cccc(-c4cncc(N)c4)c3)CC2)c1C | -3% | 0.65
77 | CCN(CC)C(=O)[C@@H]1C[C@H](N)CN1C(=O)c1cnc2c(c1)nnn2C | -14% | 2.15
78 | NC1CCN(Cc2cc(O)c3cc(Cl)ccc3n2)CC1O (stereo not given) | -5% | 0.95
79 | c1ccc(COc2cc(N3C[C@H]4COC[C@H]4C3)ncn2)cc1 | -5% | 0.83
80 | CCN1CCCC[C@@H]1CNc1ncnc(C)c1C | 7% | -1.21
81 | Cc1c(C(=O)N[C@H]2CCN(CC3CCCC3)C2)nnn1C1CCNCC1 | -2% | 0.36
82 | COc1ccnc(NCc2ccc(-n3cnc4ccccc43)cc2)n1 | 2% | -0.34
83 | Cc1c(Cl)cccc1Nc1c(-c2ccc3nccnc3c2)nc2c(C)cccn12 | -5% | 0.87
84 | Fc1ccccc1CN1CCC[C@H](NCc2ccc(C#Cc3cncnc3)cc2)C1 | -9% | 1.58
85 | Cc1cc2cc(C(=O)N(C)Cc3cccc4ncccc34)ccc2o1 | -2% | 0.41
